The record followed here is the supplement of paper PMC7580552.

Counter-ions that a name gives are not always drawn. This is one part of the list. Most values come without repeats; read them as rough.
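Further: stationary (unshaken) cultures in 96-well plates, started at OD600 0.05 from mid-exponential cells, with compounds supplied from DMSO stocks.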

This assay deals with Escherichia coli W3110. Nature of the assay: planktonic growth (OD600) relative to untreated control; higher = more growth. To be noted: 10 µM; 20-24 h; 30 °C; TB.
Molecule `CC[C@]12CCCN3CCc4c(n(c5ccccc45)[C@@](O)(C(=O)OC)C1)[C@@H]32` [Vincamine] gave a planktonic growth of 92%. To `CCC(C)(C)c1ccc(CC(C)CN2C[C@@H](C)O[C@@H](C)C2)cc1` (some centres undefined) [Amorolfine hydrochloride] belongs 116%; to `CCOC(=O)c1ccc(C#Cc2ccc3c(c2)C(C)(C)CCS3)nc1` [Tazarotene], 102%.

`CC(CCc1ccc(O)cc1)NCCc1ccc(O)c(O)c1` (centres undefined) [Dobutamine hydrochloride]: the planktonic growth came out at 102%. To `CNCC[C@@H](Oc1cccc2ccccc12)c1cccs1` [(R)-Duloxetine hydrochloride] belongs 97%; to `Nc1ccc(S(N)(=O)=O)cc1` [Sulfanilamide], 100%; to `C#CC1(O)CC[C@H]2[C@@H]3CCC4=CC(=O)CC[C@@H]4[C@H]3CC[C@@]21CC` (stereo partly drawn) [Norgestrel-(-)], 93%.

`Clc1cc(Cl)c(OCC#CI)cc1Cl` [Haloprogin] registered a planktonic growth of 88%. For the molecule `Nc1nc(=O)[nH]cc1F` [Flucytosine], the planktonic growth was found to be 89%.

Take `Nc1nnc(-c2cccc(Cl)c2Cl)c(N)n1` [Lamotrigine]: the planktonic growth came out at 78%. On to `CC[C@@]1(O)C(=O)OCc2c1cc1n(c2=O)Cc2cc3c(CN(C)C)c(O)ccc3nc2-1` [Topotecan], for which the planktonic growth amounted to 99%. To `CC(=O)O[C@]1(C(C)=O)CC[C@H]2[C@@H]3C=C(C)C4=CC(=O)CC[C@]4(C)[C@H]3CC[C@@]21C` [Megestrol acetate] belongs 100%; to `Cc1cccc(C)c1NC(=O)CN1CCN(CCCC(c2ccc(F)cc2)c2ccc(F)cc2)CC1` [Lidoflazine], 103%. The molecule `COc1ccc2c(c1)c(CC(=O)OCC(=O)O)c(C)n2C(=O)c1ccc(Cl)cc1` [Acemetacin] registered a planktonic growth of 87%. Molecule `Cc1nccn1CC1CCc2c(c3ccccc3n2C)C1=O` (centres undefined) [Ondansetron Hydrochloride] had a planktonic growth of 93%.

Take `CC(=O)NC[C@H]1CN(c2ccc(N3CCOCC3)c(F)c2)C(=O)O1` [Linezolid]: the planktonic growth came to 89%. In turn, `CC(C)(C)NCC(O)COc1cccc2c1CC(O)C(O)C2` (centres undefined) [Nadolol] yielded a planktonic growth of 94%. `Cc1cccn2c(=O)c(-c3nnn[nH]3)cnc12` [Pemirolast potassium]: the planktonic growth was 92%.

As to `CC[C@H](C)C(=O)O[C@H]1C[C@H](O)C=C2C=C[C@H](C)[C@H](CC[C@@H](O)C[C@@H](O)CC(=O)O)[C@H]21` [Pravastatin], the planktonic growth is 80%.

In turn, `CCOCCn1c(N2CCCN(C)CC2)nc2ccccc21` [Emedastine] registered a planktonic growth of 102%. Molecule `O=C(O)Cc1cc(I)c(Oc2ccc(O)c(I)c2)c(I)c1` [Tiratricol, 3,3',5-triiodothyroacetic acid] registered a planktonic growth of 110%.

The molecule `COCCCOc1ccnc(C[S+]([O-])c2nc3ccccc3[nH]2)c1C` (centres undefined) [Rabeprazole Sodium salt] had a planktonic growth of 98%.

Molecule `O=C(CCCCC(=O)Nc1c(I)cc(I)c(C(=O)O)c1I)Nc1c(I)cc(I)c(C(=O)O)c1I` [Iodipamide] displayed a planktonic growth of 98%. Consider `CNCC[C@@H](Oc1ccccc1C)c1ccccc1` [Tomoxetine hydrochloride], for which the planktonic growth came out at 107%. With `CCCCC1C(=O)N(c2ccccc2)N(c2ccccc2)C1=O` [Phenylbutazone], the planktonic growth is 92%. `CC(=O)/N=c1/sc(S(N)(=O)=O)nn1C` [Methazolamide] registered a planktonic growth of 104%. As to `N=C(N)N1CCc2ccccc2C1` [Debrisoquin sulfate], the planktonic growth was 92%. On to `CCCc1nc2c(C)cc(-c3nc4ccccc4n3C)cc2n1Cc1ccc(-c2ccccc2C(=O)O)cc1` [Telmisartan], for which the planktonic growth stood at 96%. For `COCCCOc1cc(C[C@@H](C[C@H](N)[C@@H](O)C[C@H](C(=O)NCC(C)(C)C(N)=O)C(C)C)C(C)C)ccc1OC` [Aliskiren hemifumarate], the planktonic growth turned out to be 88%. Turning to `CCCCOC(=O)c1ccc(O)cc1` [Butylparaben], the planktonic growth is 93%.

The molecule `CC(=O)Nc1ccc(OCC(O)CNC(C)C)cc1` (centres undefined) [Practolol] showed a planktonic growth of 93%.

`CN1[C@@H]2CC[C@H]1C[C@@H](OC(c1ccccc1)c1ccccc1)C2` [Benztropine mesylate] yielded a planktonic growth of 97%. To `CCCC(=O)Nc1ccc(OCC(O)CNC(C)C)c(C(C)=O)c1` (centres undefined) [Acebutolol hydrochloride] belongs 95%; to `O=C(Nc1ccccc1)OCC(CN1CCCCC1)OC(=O)Nc1ccccc1` (centres undefined) [Diperodon hydrochloride], 92%. For the molecule `Cc1c(F)c(N2CCNC(C)C2)cc2c1c(=O)c(C(=O)O)cn2C1CC1` (centres undefined) [Grepafloxacin], the planktonic growth amounted to 6%. Turning to `N=C(N=C(N)N)N1CCOCC1` [Moroxidine hydrochloride], the planktonic growth amounted to 108%.

As to `CC(=O)OCC(=O)[C@@]12OC3(CCCC3)O[C@@H]1C[C@H]1[C@@H]3CCC4=CC(=O)C=C[C@]4(C)[C@@]3(F)[C@@H](O)C[C@@]12C` [Amcinonide], the planktonic growth was 100%. `COC(=O)CCc1ccc(OCC(O)CNC(C)C)cc1` (centres undefined) [Esmolol hydrochloride] returned a planktonic growth of 111%. `CN1C(C(=O)Nc2ccccn2)=C(O)c2ccccc2S1(=O)=O` [Piroxicam] displayed a planktonic growth of 94%. Take `COCCOC(=O)C1=C(C)NC(C)=C(C(=O)OC(C)C)C1c1cccc([N+](=O)[O-])c1` (centres undefined) [Nimodipine]: the planktonic growth was determined as 96%.

The molecule `NC(=O)OCC(O)COc1ccc(Cl)cc1` (centres undefined) [Chlorphensin carbamate] had a planktonic growth of 96%. For the molecule `C[C@]12CCC(=O)C=C1C=C[C@@H]1[C@@H]2CC[C@@]2(C)[C@H]1CC[C@@]21CCC(=O)O1` [Canrenone], the planktonic growth is 110%.

In turn, `O=C(CCCN1CCC(O)(c2ccc(Cl)cc2)CC1)c1ccc(F)cc1` [Haloperidol] displayed a planktonic growth of 93%. For the molecule `Cc1ccc(C)c(OCCCC(C)(C)C(=O)O)c1` [Gemfibrozil], the planktonic growth is 91%. `O=C(O)C[C@H](O)C[C@H](O)/C=C/c1c(C2CC2)nc2ccccc2c1-c1ccc(F)cc1` [Pitavastatin calcium] gave a planktonic growth of 107%. Take `CNCCC=C1c2ccccc2C=Cc2ccccc21` [Norcyclobenzaprine]: the planktonic growth came to 97%. For the molecule `CC(C[N+](C)(C)C)OC(N)=O` (centres undefined) [Bethanechol chloride], the planktonic growth was 95%. As to `Cc1cn([C@H]2C[C@H](N=[N+]=[N-])[C@@H](CO)O2)c(=O)[nH]c1=O` [Zidovudine, AZT], the planktonic growth stood at 22%.

`COc1ccc([C@@H]2Sc3ccccc3N(CCN(C)C)C(=O)[C@@H]2OC(C)=O)cc1` [Diltiazem hydrochloride] registered a planktonic growth of 91%.

Take `COc1ccc2c(c1)C(=O)N(CCc1ccc(S(=O)(=O)NC(=O)NC3CCCCC3)cc1)C(=O)C2(C)C` [Gliquidone]: the planktonic growth was found to be 101%.

As to `CN(C)CCN(Cc1ccc(Cl)cc1)c1ccccn1` [Chloropyramine hydrochloride], the planktonic growth amounted to 110%.

With `NS(=O)(=O)Cc1noc2ccccc12` [Zonisamide], the planktonic growth came to 93%.

In turn, `Cc1c(NC(C)C)c(=O)n(-c2ccccc2)n1C` [Isopyrin hydrochloride] registered a planktonic growth of 108%.

Molecule `NCCc1cc[nH]n1` [Betazole hydrochloride] yielded a planktonic growth of 100%. For `CCCNC(C)C(=O)Nc1c(C)csc1C(=O)OC` (centres undefined) [Articaine hydrochloride] the value was 98%. For `COc1cccc(N(C)C(=S)Oc2ccc3c(c2)CCCC3)n1` [Liranaftate], the planktonic growth came out at 108%. Consider `NC(=O)N1c2ccccc2CC(=O)c2ccccc21` [Oxcarbazepine], for which the planktonic growth turned out to be 102%.

`CC(C)Cn1cnc2c(N)nc3ccccc3c21` [Imiquimod] registered a planktonic growth of 93%.

The molecule `CC[N+](CC)(CC(=O)Nc1c(C)cccc1C)Cc1ccccc1` [Denatonium benzoate] returned a planktonic growth of 111%. To `COc1cc(NS(=O)(=O)c2ccc(N)cc2)nc(OC)n1` [Sulfadimethoxine] belongs 71%; to `CC1(C)O[C@@H]2[C@@H](CO[C@@]3(COS(N)(=O)=O)OC(C)(C)O[C@@H]23)O1` [Topiramate], 102%; to `CN(C)c1cc(NC(=O)CNC(C)(C)C)c(O)c2c1C[C@H]1C[C@H]3[C@H](N(C)C)C(O)=C(C(N)=O)C(=O)[C@@]3(O)C(O)=C1C2=O` [Tigecycline], 117%.

As to `Cc1cccc(Nc2ccncc2S(=O)(=O)NC(=O)NC(C)C)c1` [Torsemide], the planktonic growth is 95%. For the molecule `CCCCCCCCNC(C)C(O)c1ccc(SC(C)C)cc1` (centres undefined) [Suloctidil], the planktonic growth came out at 93%. Take `CC(=O)CC(c1ccc([N+](=O)[O-])cc1)c1c(O)c2ccccc2oc1=O` (centres undefined) [Acenocoumarol]: the planktonic growth is 91%. Molecule `S=c1[nH]cnc2nc[nH]c12` [Mercaptopurine] registered a planktonic growth of 86%. `CN(Cc1ccc(C(C)(C)C)cc1)Cc1cccc2ccccc12` [Butenafine Hydrochloride] displayed a planktonic growth of 115%. To `CC(C)NC(=N)NC(=N)Nc1ccc(Cl)cc1` [Proguanil hydrochloride] belongs 97%; to `Cc1nnc(SCC2=C(C(=O)O)N3C(=O)[C@@H](NC(=O)Cn4cnnn4)[C@H]3SC2)s1` [Cefazolin sodium salt], 20%; to `O=c1[nH]c(=O)n([C@H]2C[C@H](O)[C@@H](CO)O2)cc1C(F)(F)F` [Trifluridine], 93%. `COc1ccc2c3c1O[C@H]1C[C@@H](O)C=C[C@@]31CCN(C)C2` [Galanthamine hydrobromide] showed a planktonic growth of 94%. In turn, `CC(C)(Sc1cc(C(C)(C)C)c(O)c(C(C)(C)C)c1)Sc1cc(C(C)(C)C)c(O)c(C(C)(C)C)c1` [Probucol] displayed a planktonic growth of 105%. Molecule `Nc1c(Br)cc(Br)cc1CN[C@H]1CC[C@H](O)CC1` [Ambroxol hydrochloride] had a planktonic growth of 103%. `Cn1ccnc1S` [Methimazole] registered a planktonic growth of 90%. Molecule `COc1cc(OC)c(C(=O)CCCN2CCCC2)c(OC)c1` [Buflomedil hydrochloride] gave a planktonic growth of 98%. In the case of `N#CC(c1ccc(Cl)cc1)c1c(Cl)cc(-n2ncc(=O)[nH]c2=O)cc1Cl` (centres undefined) [Diclazuril], the planktonic growth is 94%. Consider `COc1ccc2c(c1)N(C[C@H](C)CN(C)C)c1ccccc1S2` [Methotrimeprazine maleat salt], for which the planktonic growth was found to be 96%.

In turn, `CCCN(CCC)C(=O)C(CCC(=O)O)NC(=O)c1ccccc1` (centres undefined) [Proglumide] had a planktonic growth of 105%. Take `CCN1C(=O)NC(c2ccccc2)C1=O` (centres undefined) [Ethotoin]: the planktonic growth came out at 93%.
